Data as given in PMC4336329 (PLoS ONE, 2015).
In all, about 310,000 compounds went through this assay and about 2,200 (0.71%) showed an effect of 50% or more. The effect is printed as a negative number. The list shows a part of the results.

The compounds below were run against human ether-à-go-go-related gene (hERG) potassium channel (human, UniProt Q12809) (assay: primary screen, population patch clamp on CHO cells stably expressing hERG).
Chain of human ether-à-go-go-related gene (hERG) potassium channel (Q12809 whole entry, looked up): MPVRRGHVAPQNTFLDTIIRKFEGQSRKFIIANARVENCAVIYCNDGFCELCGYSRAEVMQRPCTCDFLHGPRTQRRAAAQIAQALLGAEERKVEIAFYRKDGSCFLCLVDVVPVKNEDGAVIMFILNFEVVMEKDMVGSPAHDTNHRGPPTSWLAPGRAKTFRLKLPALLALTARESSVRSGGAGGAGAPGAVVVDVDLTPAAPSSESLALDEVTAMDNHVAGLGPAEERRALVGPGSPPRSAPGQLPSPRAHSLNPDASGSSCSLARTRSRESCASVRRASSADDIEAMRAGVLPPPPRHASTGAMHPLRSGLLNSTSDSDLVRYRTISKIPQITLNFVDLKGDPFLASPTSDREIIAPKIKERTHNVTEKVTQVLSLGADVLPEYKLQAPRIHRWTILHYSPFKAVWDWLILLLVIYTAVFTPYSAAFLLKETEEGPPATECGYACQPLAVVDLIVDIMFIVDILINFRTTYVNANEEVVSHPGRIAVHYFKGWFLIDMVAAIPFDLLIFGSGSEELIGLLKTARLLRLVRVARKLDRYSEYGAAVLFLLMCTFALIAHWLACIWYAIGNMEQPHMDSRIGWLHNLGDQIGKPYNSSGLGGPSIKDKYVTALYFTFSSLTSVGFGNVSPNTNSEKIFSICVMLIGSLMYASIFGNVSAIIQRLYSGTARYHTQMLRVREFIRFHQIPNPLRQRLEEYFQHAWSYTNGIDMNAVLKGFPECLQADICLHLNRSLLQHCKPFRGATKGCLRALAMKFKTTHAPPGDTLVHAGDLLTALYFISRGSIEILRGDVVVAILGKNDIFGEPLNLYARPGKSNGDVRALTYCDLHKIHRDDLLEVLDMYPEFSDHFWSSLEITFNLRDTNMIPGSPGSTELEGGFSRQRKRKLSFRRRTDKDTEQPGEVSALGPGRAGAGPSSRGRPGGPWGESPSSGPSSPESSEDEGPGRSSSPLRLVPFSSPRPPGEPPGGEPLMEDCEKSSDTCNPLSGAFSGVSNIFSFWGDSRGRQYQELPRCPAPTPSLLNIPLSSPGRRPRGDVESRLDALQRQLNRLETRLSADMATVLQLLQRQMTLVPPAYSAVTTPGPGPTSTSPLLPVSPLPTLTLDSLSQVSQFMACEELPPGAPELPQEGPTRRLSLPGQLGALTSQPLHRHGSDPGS
In the case of `CCOC(=O)C(NC(=O)CCl)(Nc1ccc(C(O)(C(=O)OCC)C(F)(F)F)cc1)C(F)(F)F` (stereo not drawn), the “hERG current change (%, negative = inhibition) at 1uM” value is reported as 10.2%.
`Cc1oc(-c2ccccc2Cl)nc1CSCC(=O)N1CCCC1` was tested, and the “hERG current change (%, negative = inhibition) at 1uM” value was 0.617%.
In the case of `COc1ccc(-c2nn(-c3ccccc3F)cc2CNCCn2nc(C)cc2C)cc1`, the “hERG current change (%, negative = inhibition) at 1uM” value is reported as 4.53%.
With `Cc1cc(O)c(C=O)c2c1C(=O)Oc1c(CO)c(O)c3c(c1O2)C(O)OC3=O` (stereo not drawn) the “hERG current change (%, negative = inhibition) at 1uM” value was -1.89%.
`O=C(Nc1ccc(Oc2c(F)c(F)c(F)c(F)c2F)cc1)OC1CCN2Cc3ccccc3N=C12` (stereo not drawn) was tested, and the “hERG current change (%, negative = inhibition) at 1uM” value was 2.16%.
With `CC(=O)Nc1ccc(NC(=O)CCn2c(=S)oc3ccccc32)cc1` the “hERG current change (%, negative = inhibition) at 1uM” value was -0.841%.
For `CCN1C(=O)/C(=C/c2nc3ccccc3c(=O)n2-c2ccc(C)cc2)c2ccccc21`, the “hERG current change (%, negative = inhibition) at 1uM” value was 15.1%.
In the case of `COC(=O)C1=C(c2ccc(F)cc2OCc2ccccc2)C[C@@H]2CC[C@H]1N2C(=O)NCCCc1ccccc1`, the “hERG current change (%, negative = inhibition) at 1uM” value is reported as 13.6%.
With `CCOc1ccc(N2C(=O)CC(N3CCC(NC(=O)Nc4ccccc4)CC3)C2=O)cc1` (stereo not drawn) the “hERG current change (%, negative = inhibition) at 1uM” value was 13.5%.
For `COCCn1ccc2c(OCC(=O)NCc3ccc(C)cc3)cccc2c1=O`, the “hERG current change (%, negative = inhibition) at 1uM” value was 2.28%.
For `O=[N+]([O-])c1cncc([N+](=O)[O-])c1Nc1ccccc1Cl`, the “hERG current change (%, negative = inhibition) at 1uM” value was 9.74%.
In the case of `CCOc1cc(CNn2c(C)nnc2SCC(=O)NC(C)(C)C)ccc1OCC(=O)NC(C)(C)C`, the “hERG current change (%, negative = inhibition) at 1uM” value is reported as 10.7%.
In the case of `O=c1cc(CO)oc(CN2CCN(c3ccccc3)CC2)c1O`, the “hERG current change (%, negative = inhibition) at 1uM” value is reported as 17.3%.
In the case of `COC(=O)c1ccc(N=Nc2c(C)[nH]n(-c3ccccc3)c2=O)cc1`, the “hERG current change (%, negative = inhibition) at 1uM” value is reported as 15.4%.
In the case of `Cc1ccc(NC(=O)c2cc(S(=O)(=O)N3CCCCC3)c[nH]2)cc1F`, the “hERG current change (%, negative = inhibition) at 1uM” value is reported as 8.59%.
`COc1ccc(C)cc1NC(=O)CNC(C)C(=O)Nc1cc(Cl)ccc1Cl` (stereo not drawn) was tested, and the “hERG current change (%, negative = inhibition) at 1uM” value was 6.18%.
`CC1COc2ccccc2N1S(=O)(=O)c1cc(Cl)ccc1Cl` (stereo not drawn) was tested, and the “hERG current change (%, negative = inhibition) at 1uM” value was 15.7%.
With `CCN1CCN(c2cc(C(C)C)nc3c(-c4ccccc4)c(C)nn23)CC1` the “hERG current change (%, negative = inhibition) at 1uM” value was 10.7%.
`COC(=O)c1sccc1NC(=O)c1ccc(OC)cc1OC` was tested, and the “hERG current change (%, negative = inhibition) at 1uM” value was 9.09%.
With `Cn1ccnc1SCC(=O)N1CCc2ccccc21` the “hERG current change (%, negative = inhibition) at 1uM” value was -0.415%.
`CC(C)(Oc1ccc(CCNC(=O)c2ccc(Cl)cc2)cc1)C(=O)O` was tested, and the “hERG current change (%, negative = inhibition) at 1uM” value was 3.22%.
With `CCOC(=O)N1CCN(C(=O)c2ccc(NS(=O)(=O)c3ccc(C)cc3)cc2)CC1` the “hERG current change (%, negative = inhibition) at 1uM” value was 19.5%.
With `COC(=O)C1=C(c2cccc(OCc3ccccc3)c2)C[C@@H]2CC[C@H]1N2C(=O)NCc1ccc(F)cc1` the “hERG current change (%, negative = inhibition) at 1uM” value was 17.7%.
In the case of `O=C(C1CCCCC1)N1CCN(S(=O)(=O)c2ccc(Cl)cc2)CC1`, the “hERG current change (%, negative = inhibition) at 1uM” value is reported as 6.24%.
With `COc1ccc(C)cc1NC(=O)CSc1ccc(-c2cccnc2)nn1` the “hERG current change (%, negative = inhibition) at 1uM” value was -0.164%.
In the case of `O=C1CC(c2ccccc2)Cc2nc(N3CCc4ccccc43)ncc21` (stereo not drawn), the “hERG current change (%, negative = inhibition) at 1uM” value is reported as 15.5%.
With `N#CC1=C(N)SC(N)=C(C#N)C1c1ccc([N+](=O)[O-])cc1` the “hERG current change (%, negative = inhibition) at 1uM” value was -3.05%.
For `CC(C)COC(=O)C(C)Nc1n[nH]c(=S)[nH]c1=O` (stereo not drawn), the “hERG current change (%, negative = inhibition) at 1uM” value was 13.8%.
With `CC(C)(Oc1ccc(Cl)cc1)C(=O)Nc1ccc2oc(-c3ccncc3)nc2c1` the “hERG current change (%, negative = inhibition) at 1uM” value was 5.28%.
In the case of `COc1ccccc1NC(=O)CSc1nnc(CC(=O)Nc2ccccc2F)n1C`, the “hERG current change (%, negative = inhibition) at 1uM” value is reported as 13.3%.
With `CCOc1ccccc1C1CC(=O)Nc2c1c(=O)n(C)c(=O)n2C` (stereo not drawn) the “hERG current change (%, negative = inhibition) at 1uM” value was 11.4%.
In the case of `CCn1cc(CN2CCC(n3nccc3NC(=O)CCCc3ccccc3)CC2)c(C)n1`, the “hERG current change (%, negative = inhibition) at 1uM” value is reported as 11.3%.
`Cc1ccc2nc(-c3sc4nc(C)cc(C)c4c3N)[nH]c2c1` was tested, and the “hERG current change (%, negative = inhibition) at 1uM” value was 10.3%.
For `O=C(O)C(=O)O.O=C(c1ccco1)N1CCN(Cc2cccc3ccccc23)CC1`, the “hERG current change (%, negative = inhibition) at 1uM” value was 4.89%.
In the case of `Cc1ccc(OCCOC(=O)c2c(-c3ccccc3)noc2C)cc1`, the “hERG current change (%, negative = inhibition) at 1uM” value is reported as 19.9%.
In the case of `COc1ccc(C2=C(Nc3ccc(C)cc3)c3ccccc3C2=O)cc1`, the “hERG current change (%, negative = inhibition) at 1uM” value is reported as 2.96%.
`Cc1ccc(S(=O)(=O)Nc2nc3ccccc3nc2NCC2CCCO2)cc1C` (stereo not drawn) was tested, and the “hERG current change (%, negative = inhibition) at 1uM” value was -23.8%.
With `O=C(NNC(=O)c1ccc(-n2cncn2)c([N+](=O)[O-])c1)c1cccc(Cl)c1` the “hERG current change (%, negative = inhibition) at 1uM” value was 1.02%.
In the case of `COc1ccc(NC(=O)CC(Cc2ccccc2)C(=O)O)cc1` (stereo not drawn), the “hERG current change (%, negative = inhibition) at 1uM” value is reported as 11.5%.
In the case of `C[C@H](NC(=O)N1CCn2c1nc1ccccc12)C(=O)NCc1ccc(F)cc1`, the “hERG current change (%, negative = inhibition) at 1uM” value is reported as -5.77%.
In the case of `CCOC(=O)c1c(CN2CCCCC2)n(C)c2cc(Br)c(O)c(CN(C)C)c12`, the “hERG current change (%, negative = inhibition) at 1uM” value is reported as 9.82%.
For `CCC(CO)NCc1ccc(-c2ccccc2)cc1.Cl` (stereo not drawn), the “hERG current change (%, negative = inhibition) at 1uM” value was 3.58%.
For `Cc1ccc(NC(=O)Cn2c(=S)[nH]c3ccccc32)cc1`, the “hERG current change (%, negative = inhibition) at 1uM” value was 14.3%.
In the case of `O=C(NC1CC2CCC(C1)N2C(=O)NCc1ccccc1)NC12CC3CC(CC(C3)C1)C2` (stereo not drawn), the “hERG current change (%, negative = inhibition) at 1uM” value is reported as 18.6%.
For `O=C(Nc1cc(C(F)(F)F)ccc1N1CCCC1)C1CCCO1` (stereo not drawn), the “hERG current change (%, negative = inhibition) at 1uM” value was 10.8%.
In the case of `CCCc1c(OCCCOc2ccc(OCC(=O)O)cc2)ccc(C(C)=O)c1O`, the “hERG current change (%, negative = inhibition) at 1uM” value is reported as 18.4%.
For `O=C(CC1(O)C(=O)Nc2ccccc21)c1cccc(-n2cccc2)c1` (stereo not drawn), the “hERG current change (%, negative = inhibition) at 1uM” value was 14.8%.
For `COC(=O)c1ccc(S(=O)(=O)N2CCOCC2)o1`, the “hERG current change (%, negative = inhibition) at 1uM” value was 18.3%.
With `COc1ccc(CCCNC(=O)C2CCC(=O)N(Cc3ccccc3F)C2)cc1` (stereo not drawn) the “hERG current change (%, negative = inhibition) at 1uM” value was 3.51%.
For `O=c1cc[nH]c2ccc([N+](=O)[O-])cc12`, the “hERG current change (%, negative = inhibition) at 1uM” value was 4.14%.
With `CC(C)N1CC2(c3ccccc3)CN(C(C)C)CC(c3ccccc3)(C1)C2=O` the “hERG current change (%, negative = inhibition) at 1uM” value was -21.5%.
For `C/C=C/CSc1nc2c(c(=O)[nH]c(=O)n2C)n1C(C)C`, the “hERG current change (%, negative = inhibition) at 1uM” value was 2.13%.
In the case of `O=C(Nc1ccccc1C(=O)Nc1ccccn1)c1cccc([N+](=O)[O-])c1`, the “hERG current change (%, negative = inhibition) at 1uM” value is reported as -1.21%.
In the case of `COc1cccc(-n2c(SCc3cc(=O)oc4cc(O)c(O)cc34)nc3ccccc3c2=O)c1`, the “hERG current change (%, negative = inhibition) at 1uM” value is reported as -3.79%.
